Data: the supplement of paper PMC4967469
IC50 is the fitted dose that halves viability relative to control wells, and lower means more sensitive; fits outside the tested doses are given as limits. For AUC the same curve is integrated over the 256-fold range of doses and scaled to a fraction; values near 1 show little effect. Any top dose called inferred was derived from the fitted curves, not read from the paper.

These cell lines were tested with CCCCCCCCCCCC1=C(O)C(=O)C=C(O)C1=O [Embelin] (assay: Viability of human cancer cell lines after 72 h of drug (GDSC screen)). Conditions: top dose 32 µM; top dose inferred.
Experimental: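 Human cancer cell lines in 384-well plates, medium with 10% serum, drug for 72 h over a 256-fold dose range (nine 2-fold or five 4-fold steps up to the top dose). Adherent lines were fixed and stained with the nucleic acid dye Syto60, suspension lines read with resazurin; signal relative to control wells, capped at 0 and 100%. One two-parameter sigmoid per drug and line, fitted in a mixed model over all curves with the slope shared within a line.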
G-MEL (melanoma, adherent) showed an AUC of 0.862 and an IC50 of 26.7 µM.
GAK (melanoma, adherent) showed an AUC of 0.733 and an IC50 of 8.86 µM.
Work on GAMG (glioma, adherent) yielded an AUC of 0.743 and an IC50 of 10.4 µM.
In the case of GB-1 (glioma, adherent), the AUC is reported as 0.652 and the IC50 is reported as 5.71 µM.
GCIY (stomach, adherent) showed an AUC of 0.725 and an IC50 of 9.56 µM.
Cell Line GCT (soft tissue, adherent) has an AUC of 0.798 and an IC50 of 14 µM.
“GDM-1 (acute myeloid leukaemia, suspension)” was tested, and the AUC was 0.874 and the IC50 was 28.9 µM.
Cell Line GI-1 (glioma, adherent) has an AUC of 0.618 and an IC50 of 4.16 µM.
For GI-ME-N (neuroblastoma, adherent), the AUC was 0.903 and the IC50 was > 32 µM.
Work on GMS-10 (glioma, adherent) yielded an AUC of 0.791 and an IC50 of 14.3 µM.
GOTO (neuroblastoma, adherent) was tested, and the AUC was 0.85 and the IC50 was 29.6 µM.
In the case of GP5d (large intestine, adherent), the AUC is reported as 0.735.
Cell Line “GR-ST (lymphoblastic leukaemia, suspension)” has an AUC of 0.687 and an IC50 of 7.51 µM.
With “GRANTA-519 (B-cell lymphoma, suspension)” the AUC was 0.873 and the IC50 was 25.6 µM.
With GT3TKB (stomach, adherent) the AUC was 0.612 and the IC50 was 3.91 µM.
With H4 (glioma, adherent) the AUC was 0.636 and the IC50 was 4.72 µM.
In the case of H9 (lymphoid neoplasm, suspension), the AUC is reported as 0.913 and the IC50 is reported as > 32 µM.
For H290 (mesothelioma, adherent), the AUC was 0.698 and the IC50 was 6.81 µM.
In the case of H513 (mesothelioma, semi-adherent), the AUC is reported as 0.927 and the IC50 is reported as > 32 µM.
Work on H2369 (mesothelioma, adherent) yielded an AUC of 0.815 and an IC50 of 18.3 µM.
H2373 (mesothelioma, adherent) gave an AUC of 0.834 and an IC50 of 28.8 µM.
H2461 (mesothelioma, adherent) gave an AUC of 0.777 and an IC50 of 16.2 µM.
Work on H2591 (mesothelioma, adherent) yielded an AUC of 0.819 and an IC50 of 25.8 µM.
For H2595 (mesothelioma, adherent), the AUC was 0.857 and the IC50 was > 32 µM.
H2722 (mesothelioma, adherent) gave an AUC of 0.779 and an IC50 of 15.7 µM.
H2731 (mesothelioma, adherent) was tested, and the AUC was 0.829 and the IC50 was 23.8 µM.
H2795 (mesothelioma, adherent) was tested, and the AUC was 0.66 and the IC50 was 5.53 µM.
For H2803 (mesothelioma, adherent), the AUC was 0.823 and the IC50 was 23.1 µM.
In the case of H2804 (mesothelioma, adherent), the AUC is reported as 0.771 and the IC50 is reported as 13.5 µM.
In the case of H2818 (mesothelioma, adherent), the AUC is reported as 0.962 and the IC50 is reported as > 32 µM.
For H2869 (mesothelioma, adherent), the AUC was 0.888 and the IC50 was > 32 µM.
H3118 (head and neck, adherent) was tested, and the AUC was 0.66 and the IC50 was 5.82 µM.
With H3255 (lung adenocarcinoma, adherent) the AUC was 0.827 and the IC50 was 24.9 µM.
With H-EMC-SS (chondrosarcoma, adherent) the AUC was 0.88 and the IC50 was > 32 µM.
With HA7-RCC (kidney, adherent) the AUC was 0.824 and the IC50 was 21.7 µM.
Cell Line “HAL-01 (lymphoblastic leukaemia, suspension)” has an AUC of 0.887 and an IC50 of 28.5 µM.
Work on “HARA (lung squamous cell carcinoma, adherent)” yielded an AUC of 0.8 and an IC50 of 18.6 µM.
In the case of HC-1 (hairy cell leukaemia, suspension), the AUC is reported as 0.691 and the IC50 is reported as 6.68 µM.
Work on HCC38 (breast, adherent) yielded an AUC of 0.811 and an IC50 of 18.7 µM.
With HCC70 (breast, adherent) the AUC was 0.945 and the IC50 was > 32 µM.
HCC202 (breast, adherent) showed an AUC of 0.739 and an IC50 of 12.9 µM.
HCC1143 (breast, adherent) gave an AUC of 0.702 and an IC50 of 9.4 µM.
With HCC1187 (breast, suspension) the AUC was 0.904 and the IC50 was > 32 µM.
With HCC1395 (breast, adherent) the AUC was 0.843 and the IC50 was 29.9 µM.
HCC1419 (breast, adherent) showed an AUC of 0.795 and an IC50 of 22.6 µM.
In the case of HCC1428 (breast, adherent), the AUC is reported as 0.865 and the IC50 is reported as > 32 µM.
With HCC1500 (breast, adherent) the AUC was 0.902 and the IC50 was > 32 µM.
HCC1569 (breast, adherent) was tested, and the AUC was 0.738 and the IC50 was 12.2 µM.
Work on HCC1599 (breast, suspension) yielded an AUC of 0.721 and an IC50 of 9.36 µM.
HCC1806 (breast, adherent) gave an AUC of 0.85 and an IC50 of 21.3 µM.
HCC1937 (breast, adherent) gave an AUC of 0.751 and an IC50 of 12 µM.
HCC1954 (breast, adherent) gave an AUC of 0.779 and an IC50 of 15.3 µM.
With HCC2157 (breast, suspension) the AUC was 0.894 and the IC50 was > 32 µM.
HCC2218 (breast, suspension) gave an AUC of 0.783 and an IC50 of 17.2 µM.
HCC2998 (large intestine, adherent) was tested, and the AUC was 0.724 and the IC50 was 8.45 µM.
“HCC-15 (lung squamous cell carcinoma, adherent)” showed an AUC of 0.809 and an IC50 of 22.7 µM.
“HCC-33 (small cell lung carcinoma, adherent)” was tested, and the AUC was 0.928 and the IC50 was > 32 µM.
HCC-44 (lung adenocarcinoma, adherent) showed an AUC of 0.605 and an IC50 of 3.85 µM.
For HCC-56 (large intestine, adherent), the AUC was 0.898 and the IC50 was > 32 µM.
For HCC-78 (lung adenocarcinoma, adherent), the AUC was 0.856 and the IC50 was > 32 µM.
HCC-827 (lung adenocarcinoma, adherent) gave an AUC of 0.741 and an IC50 of 11 µM.
With HCE-4 (oesophagus, adherent) the AUC was 0.758 and the IC50 was 9.67 µM.
In the case of HCT-15 (large intestine, adherent), the AUC is reported as 0.751 and the IC50 is reported as 11.1 µM.
HCT-116 (large intestine, adherent) was tested, and the AUC was 0.829 and the IC50 was 18.5 µM.
With HD-MY-Z (Hodgkin lymphoma, adherent) the AUC was 0.837 and the IC50 was 21.6 µM.
With HDLM-2 (Hodgkin lymphoma, suspension) the AUC was 0.811 and the IC50 was 16.7 µM.
HDQ-P1 (breast, adherent) gave an AUC of 0.694 and an IC50 of 7.88 µM.
In the case of HEC-1 (endometrium, adherent), the AUC is reported as 0.788 and the IC50 is reported as 13.5 µM.
For “HEL (acute myeloid leukaemia, semi-adherent)”, the AUC was 0.791 and the IC50 was 11.8 µM.
With HGC-27 (stomach, adherent) the AUC was 0.697 and the IC50 was 6.45 µM.
With HH (T-cell leukaemia, suspension) the AUC was 0.882 and the IC50 was > 32 µM.
With “HL-60 (acute myeloid leukaemia, suspension)” the AUC was 0.71 and the IC50 was 7.29 µM.
HLE (liver, adherent) was tested, and the AUC was 0.693 and the IC50 was 6.71 µM.
With HMV-II (melanoma, adherent) the AUC was 0.661 and the IC50 was 6.23 µM.
Cell Line HN (head and neck, adherent) has an AUC of 0.868 and an IC50 of 26.1 µM.
HO-1-N-1 (head and neck, adherent) gave an AUC of 0.788 and an IC50 of 12.8 µM.
Work on HO-1-u-1 (head and neck, adherent) yielded an AUC of 0.748 and an IC50 of 9.9 µM.
For HOP-62 (lung adenocarcinoma, adherent), the AUC was 0.648 and the IC50 was 5.12 µM.
For “HOP-92 (large cell lung carcinoma, adherent)”, the AUC was 0.714 and the IC50 was 8.98 µM.
Work on HOS (osteosarcoma, adherent) yielded an AUC of 0.727 and an IC50 of 7.74 µM.
For HPAC (pancreas, adherent), the AUC was 0.654 and the IC50 was 6.41 µM.
HPAF-II (pancreas, adherent) gave an AUC of 0.79 and an IC50 of 19.4 µM.
Cell Line HSC-2 (head and neck, adherent) has an AUC of 0.722 and an IC50 of 8.03 µM.
HSC-3 (head and neck, adherent) was tested, and the AUC was 0.813 and the IC50 was 14.3 µM.
Work on HSC-4 (head and neck, adherent) yielded an AUC of 0.755 and an IC50 of 14.2 µM.
For HSC-39 (stomach, suspension), the AUC was 0.927 and the IC50 was > 32 µM.
With HT55 (large intestine, adherent) the AUC was 0.884 and the IC50 was > 32 µM.
Work on HT (B-cell lymphoma, suspension) yielded an AUC of 0.677 and an IC50 of 5.94 µM.
HT-3 (cervix, adherent) gave an AUC of 0.849 and an IC50 of 24.7 µM.
For HT-29 (large intestine, adherent), the AUC was 0.753 and the IC50 was 10.7 µM.
With HT-115 (large intestine, adherent) the AUC was 0.948 and the IC50 was > 32 µM.
In the case of HT-144 (melanoma, adherent), the AUC is reported as 0.731 and the IC50 is reported as 9.92 µM.
HT-1080 (fibrosarcoma, adherent) gave an AUC of 0.649 and an IC50 of 4.93 µM.
HT-1197 (bladder, adherent) was tested, and the AUC was 0.836 and the IC50 was 27 µM.
In the case of HT-1376 (bladder, adherent), the AUC is reported as 0.687 and the IC50 is reported as 7.39 µM.
Cell Line HTC-C3 (thyroid, adherent) has an AUC of 0.73 and an IC50 of 9.88 µM.
HUTU-80 (digestive system, adherent) showed an AUC of 0.539 and an IC50 of 2.5 µM.
With HeLa (cervix, adherent) the AUC was 0.728 and the IC50 was 8.59 µM.
Cell Line Hep 3B2_1-7 (liver, adherent) has an AUC of 0.723 and an IC50 of 8.6 µM.
For Hs633T (fibrosarcoma, adherent), the AUC was 0.638 and the IC50 was 4.44 µM.
With Hs683 (glioma, adherent) the AUC was 0.706 and the IC50 was 7.67 µM.
Hs766T (pancreas, adherent) gave an AUC of 0.613 and an IC50 of 4.52 µM.
Hs939-T (melanoma, adherent) showed an AUC of 0.65 and an IC50 of 5.43 µM.
With Hs940-T (melanoma, adherent) the AUC was 0.699 and the IC50 was 8.24 µM.
In the case of Hs-445 (Hodgkin lymphoma, suspension), the AUC is reported as 0.807 and the IC50 is reported as 14.9 µM.
